The source of these data is PubChem BioAssay AID485344 (National Center for Advancing Translational Sciences (NCATS), 2010).

About 6,900 (2%) of roughly 340,000 compounds were called active. Rule as the data show it: active = inhibition above about 30%; inactive = below that, where a call was filed. The entries are a selection whose mix differs from that of the whole data set. Where no call is shown, the source filed none.

UniProt P14416, sequence (P14416 whole entry, looked up): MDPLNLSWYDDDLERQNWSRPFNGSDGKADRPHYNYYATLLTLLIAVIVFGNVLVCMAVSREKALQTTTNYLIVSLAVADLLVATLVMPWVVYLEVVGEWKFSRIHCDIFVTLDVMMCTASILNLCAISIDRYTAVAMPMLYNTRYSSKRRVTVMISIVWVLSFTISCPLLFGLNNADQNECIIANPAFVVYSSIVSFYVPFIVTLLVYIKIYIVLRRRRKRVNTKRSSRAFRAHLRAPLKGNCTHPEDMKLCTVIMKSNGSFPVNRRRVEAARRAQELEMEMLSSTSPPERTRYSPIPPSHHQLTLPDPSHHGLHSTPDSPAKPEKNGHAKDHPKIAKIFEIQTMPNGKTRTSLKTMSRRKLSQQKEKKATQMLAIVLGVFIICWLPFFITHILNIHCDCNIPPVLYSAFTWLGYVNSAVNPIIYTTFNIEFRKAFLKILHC

This test addresses D(2) dopamine receptor (Homo sapiens) (UniProt P14416). The test can be described thus: HTS Assay for Allosteric Antagonists of the Human D2 Dopamine Receptor: Primary Screen for Antagonists. Also: 0% is about no effect. The conditions noted are these: HEK293 TREx D2 cells, calcium flux, dopamine EC80; at 10 µM; stronger effect = higher value. The gist of the method:
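Tetracycline-induced HEK293 T-REx cells expressing D2 force-coupled to calcium signalling were dye-loaded, exposed to compound for 180 s, then challenged with an EC80 of dopamine; calcium flux was followed kinetically for a further 180 s.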
In general terms: Calcium assays in cells follow changes in intracellular calcium, usually with a dye or a luminescent sensor.
As a reminder, the inhibition is the drop in the measured response relative to a control, in per cent. As for `Cc1cccc(C)c1Nc1c(-c2ccc(N3CCOCC3)cc2)nc2ncccn12`, the inhibition is 13.9%. The result for `O=C(Cn1nc(Cc2ccncc2)c2ccccc2c1=O)Nc1cccc(C(F)(F)F)c1` reads 3.09%; that for `COc1ccccc1CNC(=O)Cn1c(-c2ccc(F)cc2)cc(C(C)=O)c1C`, 14.8%; that for `CCN(CC)CCN(C(=O)c1ccco1)c1nc2c(C)c(C)ccc2s1`, 11.1%. For the compound `CNC(=O)c1c(NC(=O)c2cc(=O)c3cc(C)c(C)cc3o2)sc2c1CCCC2`, the inhibition was found to be 9.93%. As to `Cc1ccc(-c2cc(C(F)(F)F)n3nc(-c4cccc(Br)c4)cc3n2)cc1`, the inhibition was -15.8%.

As to `CN(C(=O)c1c[nH]c2ccc(S(=O)(=O)Nc3cccc(C(F)(F)F)c3)cc2c1=O)C1CCCCC1`, the inhibition was -0.644%. Under `CCn1c(=O)cc(OCC(=O)N2CCN(c3ccc(C(C)=O)cc3)CC2)c2ccccc21` stands -3.34%; under `COc1ccc(N2CCN(C(=O)CN3CCSc4ccccc43)CC2)cc1`, 1.72%; under `Cc1ccc2oc(=O)c(S(=O)(=O)c3ccc(F)cc3)cc2c1`, -5.97%. Consider `CCc1nc2ccc(C(=O)NCc3ccc(N(C)C)cc3)cc2nc1CC`, for which the inhibition was 13.1%. As for `CC1CCCC(NC(=O)COC(=O)c2cccc(NS(=O)(=O)/C=C/c3ccccc3)c2)C1C` (configuration not stated), the inhibition was active: 49.8%.

`CCN(C(=O)CSc1nc2ccccc2n1Cc1ccc(C(=O)OC)cc1)c1ccccc1`: the inhibition worked out at 2.67%. The result for `COc1ccc(CCN2C(=O)NC(NC(=O)c3ccccc3OC)(C(F)(F)F)C2=O)cc1OC` (configuration not stated) reads -7.07%. Take `CCC(Sc1ncc(S(=O)(=O)c2ccc(C)cc2)c(=O)[nH]1)C(=O)Nc1cc(C)ccc1C` (configuration not stated): the inhibition came out at 0.43%.

As to `CCc1ccc(NC(=O)CN2CCN(C3CCCCC3)C(=O)C2=O)cc1`, the inhibition is 2.43%.

With `Cc1ccc(/C=C(\C#N)C(=O)Nc2ccc(Br)cc2)o1`, the inhibition is 0.0126%. Consider `O=C(Cn1cc(SCc2ccc(Br)cc2)c2ccccc21)N1CCCCC1`, for which the inhibition stood at 2.77%. With `O=C(Nc1c(C(=O)c2ccc(Cl)cc2)oc2ccccc12)c1cc(=O)c2ccccc2o1`, the inhibition is 6.53%.

With `COc1ccc(NC(=O)c2cnc(Nc3ccc(C)c(Cl)c3)c3ccccc23)c(OC)c1`, the inhibition is -12.7%. For `CCOC(=O)Nc1ccc(NC(=O)OCC)cc1`, the inhibition was active: 38.8%. On to `O=C(CN1CCN(c2ccccc2F)CC1)c1c[nH]c2ccc(F)cc12`, for which the inhibition was active: 35.1%. Turning to `COc1ccc2c(c1)CC(C(=O)NCCN1CCN(c3ccccc3F)CC1)CO2` (configuration not stated), the inhibition is -3.89%. As to `CCCC(=O)N1CCc2cc(OC)c(OC)cc2C1COc1ccc2c(C)cc(=O)oc2c1` (configuration not stated), the inhibition turned out to be 2.92%. Turning to `COc1ccc(NC(=O)Cn2c(=O)cc(C)c3c(C)nn(C)c32)cc1`, the inhibition is 2.66%. Consider `COc1ccc(CNc2nc(-c3ccc(OC)cc3)cc(C(F)(F)F)n2)cc1`, for which the inhibition is -18.5%.

With `CCCSc1ncc(Cl)c(C(=O)Nc2ccc(S(=O)(=O)N3CCC(C)CC3)cc2)n1`, the inhibition was -11.7%.
